The other results are listed elsewhere or left out. The list includes weakly bound sequences.
Each sequence was assayed against T1, MBP-FoxP3dN (UniProt Q99JB6) (assay: PD-seq (MBP pull-down with sequencing)). Details: 20 mM Tris-HCl pH 7.5, 100 mM NaCl, 1.5 mM MgCl2, 0.4 uM protein, 0.1 uM dsDNA library, 30 min, room temperature, amylose pull-down; high values mean tight binding; double strand, one strand shown.
T1 sequence: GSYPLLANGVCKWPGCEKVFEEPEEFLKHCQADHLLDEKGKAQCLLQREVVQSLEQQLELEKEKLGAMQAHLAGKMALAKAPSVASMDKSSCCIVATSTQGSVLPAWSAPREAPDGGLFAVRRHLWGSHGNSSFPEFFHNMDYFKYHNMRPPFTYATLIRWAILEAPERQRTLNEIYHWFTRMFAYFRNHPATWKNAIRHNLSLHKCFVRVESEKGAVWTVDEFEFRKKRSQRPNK

| Sequence | binding signal (RPM ratio (pull-down/input)) |
| --- | --- |
| GATGATTGTTCTCCCAGCTGATGAATTATCAGCTTCGAGTAAACAAATTTTCCTAATCTTTCTGTTCAAGCGCCATCTAC | 0.351 |
| GATGATTGTTCTCCCAGCTGATGAATTATAACCGTCGAGTAAACAAATTTTCCTAATCTTTCTGTTCAAGCGCCATCTAC | 0.364 |
| GATGATTGTTCTCCCAGCTGATGAATTTCGGTTATCGAGTAAACAAATTTTCCTAATCTTTCTGTTCAAGCGCCATCTAC | 0.994 |
| GATGATTGTTCTCCCAGCTGATGAATTATGAAGGTCGAGTAAACAAATTTTCCTAATCTTTCTGTTCAAGCGCCATCTAC | 0.269 |
| GATGATTGTTCTCCCAGCTGATGAATTGCTACGCTCGAGTAAACAAATTTTCCTAATCTTTCTGTTCAAGCGCCATCTAC | 0.571 |
| GATGATTGTTCTCCCAGCTGATGAATTTCGTCGCTCGAGTAAACAAATTTTCCTAATCTTTCTGTTCAAGCGCCATCTAC | 0.505 |
| GATGATTGTTCTCCCAGCTGATGAATTACTAACTTCGAGTAAACAAATTTTCCTAATCTTTCTGTTCAAGCGCCATCTAC | 0.543 |
| GATGATTGTTCTCCCAGCTGATGAATTTAACACCTCGAGTAAACAAATTTTCCTAATCTTTCTGTTCAAGCGCCATCTAC | 0.871 |
| GATGATTGTTCTCCCAGCTGATGAATTACTACCGTCGAGTAAACAAATTTTCCTAATCTTTCTGTTCAAGCGCCATCTAC | 0.386 |
| GATGATTGTTCTCCCAGCTGATGAATTACTACACTCGAGTAAACAAATTTTCCTAATCTTTCTGTTCAAGCGCCATCTAC | 0.526 |
| GATGATTGTTCTCCCAGCTGATGAATTTTAGGATTCGAGTAAACAAATTTTCCTAATCTTTCTGTTCAAGCGCCATCTAC | 0.258 |
| GATGATTGTTCTCCCAGCTGATGAATTTTTTATATCGAGTAAACAAATTTTCCTAATCTTTCTGTTCAAGCGCCATCTAC | 0.31 |
| GATGATTGTTCTCCCAGCTGATGAATTATATATTTCGAGTAAACAAATTTTCCTAATCTTTCTGTTCAAGCGCCATCTAC | 0.925 |
| GATGATTGTTCTCCCAGCTGATGAATTGCTGAGCTCGAGTAAACAAATTTTCCTAATCTTTCTGTTCAAGCGCCATCTAC | 0.392 |
| GATGATTGTTCTCCCAGCTGATGAATTGCGAGGTTCGAGTAAACAAATTTTCCTAATCTTTCTGTTCAAGCGCCATCTAC | 0.749 |
| GATGATTGTTCTCCCAGCTGATGAATTGAACCGGTCGAGTAAACAAATTTTCCTAATCTTTCTGTTCAAGCGCCATCTAC | 0.244 |
| GATGATTGTTCTCCCAGCTGATGAATTGGCTAACTCGAGTAAACAAATTTTCCTAATCTTTCTGTTCAAGCGCCATCTAC | 0.307 |
| GATGATTGTTCTCCCAGCTGATGAATTCGTGTAGTCGAGTAAACAAATTTTCCTAATCTTTCTGTTCAAGCGCCATCTAC | 1.48 |
| GATGATTGTTCTCCCAGCTGATGAATTTGGACGCTCGAGTAAACAAATTTTCCTAATCTTTCTGTTCAAGCGCCATCTAC | 0.49 |
| GATGATTGTTCTCCCAGCTGATGAATTTTAAACATCGAGTAAACAAATTTTCCTAATCTTTCTGTTCAAGCGCCATCTAC | 0.476 |
| GATGATTGTTCTCCCAGCTGATGAATTGGAAGTGTCGAGTAAACAAATTTTCCTAATCTTTCTGTTCAAGCGCCATCTAC | 0.371 |

| Sequence | binding signal (RPM ratio (pull-down/input)) |
| --- | --- |
| GATGATTGTTCTCCCAGCTGATGAATTTCTACATTCGAGTAAACAAATTTTCCTAATCTTTCTGTTCAAGCGCCATCTAC | 0.295 |
| GATGATTGTTCTCCCAGCTGATGAATTAGACACATCGAGTAAACAAATTTTCCTAATCTTTCTGTTCAAGCGCCATCTAC | 0.667 |
| GATGATTGTTCTCCCAGCTGATGAATTCATTTAATCGAGTAAACAAATTTTCCTAATCTTTCTGTTCAAGCGCCATCTAC | 0.363 |
| GATGATTGTTCTCCCAGCTGATGAATTACAGAGATCGAGTAAACAAATTTTCCTAATCTTTCTGTTCAAGCGCCATCTAC | 0.326 |
| GATGATTGTTCTCCCAGCTGATGAATTCTTATACTCGAGTAAACAAATTTTCCTAATCTTTCTGTTCAAGCGCCATCTAC | 0.367 |
| GATGATTGTTCTCCCAGCTGATGAATTTGGGCCGTCGAGTAAACAAATTTTCCTAATCTTTCTGTTCAAGCGCCATCTAC | 0.513 |
| GATGATTGTTCTCCCAGCTGATGAATTTTACCGGTCGAGTAAACAAATTTTCCTAATCTTTCTGTTCAAGCGCCATCTAC | 0.201 |
| GATGATTGTTCTCCCAGCTGATGAATTACAGCGCTCGAGTAAACAAATTTTCCTAATCTTTCTGTTCAAGCGCCATCTAC | 0.408 |
| GATGATTGTTCTCCCAGCTGATGAATTACGTTCATCGAGTAAACAAATTTTCCTAATCTTTCTGTTCAAGCGCCATCTAC | 0.621 |
| GATGATTGTTCTCCCAGCTGATGAATTCAAAGATTCGAGTAAACAAATTTTCCTAATCTTTCTGTTCAAGCGCCATCTAC | 0.215 |
| GATGATTGTTCTCCCAGCTGATGAATTAGTTCAGTCGAGTAAACAAATTTTCCTAATCTTTCTGTTCAAGCGCCATCTAC | 0.347 |
| GATGATTGTTCTCCCAGCTGATGAATTTTAGGTTTCGAGTAAACAAATTTTCCTAATCTTTCTGTTCAAGCGCCATCTAC | 0.446 |
| GATGATTGTTCTCCCAGCTGATGAATTGTCACTATCGAGTAAACAAATTTTCCTAATCTTTCTGTTCAAGCGCCATCTAC | 0.768 |
| GATGATTGTTCTCCCAGCTGATGAATTTCCGTATTCGAGTAAACAAATTTTCCTAATCTTTCTGTTCAAGCGCCATCTAC | 1.21 |
| GATGATTGTTCTCCCAGCTGATGAATTCCTATATTCGAGTAAACAAATTTTCCTAATCTTTCTGTTCAAGCGCCATCTAC | 0.374 |
| GATGATTGTTCTCCCAGCTGATGAATTCCTCATATCGAGTAAACAAATTTTCCTAATCTTTCTGTTCAAGCGCCATCTAC | 0.342 |
| GATGATTGTTCTCCCAGCTGATGAATTCGCTTTATCGAGTAAACAAATTTTCCTAATCTTTCTGTTCAAGCGCCATCTAC | 1.16 |
| GATGATTGTTCTCCCAGCTGATGAATTGACAGTGTCGAGTAAACAAATTTTCCTAATCTTTCTGTTCAAGCGCCATCTAC | 0.52 |
| GATGATTGTTCTCCCAGCTGATGAATTGGAAATGTCGAGTAAACAAATTTTCCTAATCTTTCTGTTCAAGCGCCATCTAC | 0.289 |
| GATGATTGTTCTCCCAGCTGATGAATTCGTTTCCTCGAGTAAACAAATTTTCCTAATCTTTCTGTTCAAGCGCCATCTAC | 1.76 |
| GATGATTGTTCTCCCAGCTGATGAATTGACCATATCGAGTAAACAAATTTTCCTAATCTTTCTGTTCAAGCGCCATCTAC | 0.44 |

| Sequence | binding signal (RPM ratio (pull-down/input)) |
| --- | --- |
| GATGATTGTTCTCCCAGCTGATGAATTCTGACGATCGAGTAAACAAATTTTCCTAATCTTTCTGTTCAAGCGCCATCTAC | 0.261 |
| GATGATTGTTCTCCCAGCTGATGAATTTTTTTGTTCGAGTAAACAAATTTTCCTAATCTTTCTGTTCAAGCGCCATCTAC | 0.472 |
| GATGATTGTTCTCCCAGCTGATGAATTCGGTCAATCGAGTAAACAAATTTTCCTAATCTTTCTGTTCAAGCGCCATCTAC | 0.25 |
| GATGATTGTTCTCCCAGCTGATGAATTGCCGTGGTCGAGTAAACAAATTTTCCTAATCTTTCTGTTCAAGCGCCATCTAC | 0.607 |
| GATGATTGTTCTCCCAGCTGATGAATTTTAAATTTCGAGTAAACAAATTTTCCTAATCTTTCTGTTCAAGCGCCATCTAC | 0.275 |
| GATGATTGTTCTCCCAGCTGATGAATTTACTCCGTCGAGTAAACAAATTTTCCTAATCTTTCTGTTCAAGCGCCATCTAC | 0.361 |
| GATGATTGTTCTCCCAGCTGATGAATTGCGCCCATCGAGTAAACAAATTTTCCTAATCTTTCTGTTCAAGCGCCATCTAC | 2.41 |
| GATGATTGTTCTCCCAGCTGATGAATTACCAACTTCGAGTAAACAAATTTTCCTAATCTTTCTGTTCAAGCGCCATCTAC | 0.502 |
| GATGATTGTTCTCCCAGCTGATGAATTTCCTCGTTCGAGTAAACAAATTTTCCTAATCTTTCTGTTCAAGCGCCATCTAC | 0.255 |
| GATGATTGTTCTCCCAGCTGATGAATTCTGACTGTCGAGTAAACAAATTTTCCTAATCTTTCTGTTCAAGCGCCATCTAC | 0.848 |
| GATGATTGTTCTCCCAGCTGATGAATTCTAAAGATCGAGTAAACAAATTTTCCTAATCTTTCTGTTCAAGCGCCATCTAC | 0.201 |
| GATGATTGTTCTCCCAGCTGATGAATTACAGAGGTCGAGTAAACAAATTTTCCTAATCTTTCTGTTCAAGCGCCATCTAC | 0.31 |
| GATGATTGTTCTCCCAGCTGATGAATTTTTCCGGTCGAGTAAACAAATTTTCCTAATCTTTCTGTTCAAGCGCCATCTAC | 0.15 |
| GATGATTGTTCTCCCAGCTGATGAATTGCGCCTCTCGAGTAAACAAATTTTCCTAATCTTTCTGTTCAAGCGCCATCTAC | 7.17 |
| GATGATTGTTCTCCCAGCTGATGAATTAGCATCATCGAGTAAACAAATTTTCCTAATCTTTCTGTTCAAGCGCCATCTAC | 4.09 |
| GATGATTGTTCTCCCAGCTGATGAATTTCGTGTGTCGAGTAAACAAATTTTCCTAATCTTTCTGTTCAAGCGCCATCTAC | 1.7 |
| GATGATTGTTCTCCCAGCTGATGAATTGAAGAAGTCGAGTAAACAAATTTTCCTAATCTTTCTGTTCAAGCGCCATCTAC | 0.175 |
| GATGATTGTTCTCCCAGCTGATGAATTGCTCTTCTCGAGTAAACAAATTTTCCTAATCTTTCTGTTCAAGCGCCATCTAC | 0.552 |
| GATGATTGTTCTCCCAGCTGATGAATTCTCCGAGTCGAGTAAACAAATTTTCCTAATCTTTCTGTTCAAGCGCCATCTAC | 0.182 |
| GATGATTGTTCTCCCAGCTGATGAATTCTCTAGTTCGAGTAAACAAATTTTCCTAATCTTTCTGTTCAAGCGCCATCTAC | 0.293 |
| GATGATTGTTCTCCCAGCTGATGAATTCGACGGCTCGAGTAAACAAATTTTCCTAATCTTTCTGTTCAAGCGCCATCTAC | 0.282 |

Reference: paper PMC12820563
